In article PMC10726135:
The list shows a part of the results. At the low end of the ranking the order means little. The protein was read in a cell extract, so binding may be indirect.

target: T1, HNF4alpha8 (COS-7 nuclear extract) (UniProt P41235-5); assay: protein-binding microarray; conditions: COS-7 nuclear extract on double-stranded Agilent 4x180k PBM; binding buffer, salt, pH and temperature not given; high values mean tight binding; double strand, one strand shown; sequences stand for … in …GCCTAGGGAGATTAGAGTATCGGTCGA
T1 sequence: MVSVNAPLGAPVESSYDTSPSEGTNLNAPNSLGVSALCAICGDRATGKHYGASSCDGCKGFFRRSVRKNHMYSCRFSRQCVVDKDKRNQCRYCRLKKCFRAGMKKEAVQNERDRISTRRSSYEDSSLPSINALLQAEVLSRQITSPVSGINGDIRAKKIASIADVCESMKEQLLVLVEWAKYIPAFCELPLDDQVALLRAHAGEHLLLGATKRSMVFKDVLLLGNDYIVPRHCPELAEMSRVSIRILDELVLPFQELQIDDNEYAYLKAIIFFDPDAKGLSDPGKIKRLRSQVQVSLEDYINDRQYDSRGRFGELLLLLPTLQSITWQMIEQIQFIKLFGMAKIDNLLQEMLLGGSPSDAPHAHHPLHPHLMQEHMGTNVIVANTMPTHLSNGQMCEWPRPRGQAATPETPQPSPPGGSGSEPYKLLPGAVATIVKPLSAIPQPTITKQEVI

Sequence	binding signal (log2 normalized intensity)
CATAGGAGAAACACATAAACCCTGACCCTC	3
TCCTTTGGATCATGTGTCTGAGCAAGTTTC	1.47
AATTAGGGAGTAGGGACAGCTAGTCTAGAC	-1.36
TCAAGGAAGAGAACTCCCTATCCCCAGATT	2.35
GTGGCCATGATGCCATCTGGTGAAGCTTAT	-0.778
AGTCCGTTACAGACAGGCAGCCCCTGGAAA	-1.27
CATCACATTCCCCAGGCAATCTTCCAGTCC	0.591
CTCTGTATTGTAAAAGAAAGTGAGCAGGCA	-0.689
TGTGTTGACCGATAACCCTCCTGAACATAA	0.902
CCAAAATGGCGACAAGAGTGACCTCTGGTC	5.71
AGGCGGAAGTAAGGCGGAAGTACTGCCCTT	2.03
AACTACAAACGGATATTTGATCAAAGGTCA	6.27
TTCACACTCCCACCAGCATGGTGATGCTAG	-1.3
GCCAGATAGCCACTGGGGTCATGGAGCTGG	1.43
CCATCTTGCCCACCAATGATCAAAGGTTAG	4.73
TGTTCATTCATTCACCTTTCGCCCTTTGTC	4.49
ACGCAGGCCTGCAAGCTCCTGGTTGGGGCC	-1.06
CTCACAGAAAGAAGAGACAGCTGGGCCCTG	-1.34
TTGGGGCTGATGTCTTTCTGGCCAGAGGGG	0.573
AGCAGCATAAAGGACTTTCAACCCTGTGAT	3.89
GCCTCTGGGCTTTGATGGACATTGCTGGTG	1.01
CTATCACCTCTCCCACCTGAATTATTGTAT	1.97
GGGAGCAGGCAGATTTGACCTACGGACCAT	4.8
CAGGGTCAGAAGGGAGGTAGTCGCCCTCCG	-0.202

Sequence	binding signal (log2 normalized intensity)
AAATAAAGCAGCAAACCAGATAAGACTATC	-1.33
AAGCAAGACTGCAGGGTCATAGCTTTATCT	0.165
CAATAAGCCAGTGAACCTTTGTCCCGTTAT	3.81
GGAGACCTGAAACTAGACCAAGAAGACTTT	-0.267
GCAAAAATGCCAGGCATTTGCGATAATAGA	-1.36
TTAGCTATCAGTGTTGACCTCTGGACCTCA	7.79
AGCACAACCCGGGCGCACAAGATGCCGCCT	-1.15
GGAGAACAAAGTTCACCTTTCCCTTCTTCT	3.4
GAGAGAGAGAGAGGTGGGCAAAGGTCTCAA	3.68
TCACAAAGGGCTGAGGTTAAAGTCCACATT	8.03
GAATTCTCTAAGTAATCAATGGTTGCACTC	1.27
GATAACTGGGGGCAAAGGTTCACTTTGGGG	5.18
GGCCACAGACCCCCGGTGGAGCAGCTTTCT	1.81
GCAGTGAAATTCTGGCCAACCAGCACTTCT	-1.38
CTGAATAAAACAAACTCATTTTGATCTTTG	2.87
CAGAGCAAAGGGCTTATTTTAGGAGCCTCC	-1.3
CAGAGAAGCCGTGGTGCTGTCCAAGGTGCT	-1.22
CCTGCTGCTGGCTGGCGGCCTTTGGGTCCC	1.31
TCAGCCATCTCCCCAGGGAGGCCTGGGCCC	-1.31
AGGGCAAAGGTCAGAGGCTGATTTCTCAGG	5.36
AACTTGGTTACAGGACCAGGTGTAGATAAA	0.419
AGAAGACCAAACAACCAGGGAGATGTGAGC	-1.43
CAGTGCAAACACACAATATTGACATTCCAG	-1.01
CGGCGGAGCCTCCGGCCTGAGGCAGGATCA	-1.3

Sequence	binding signal (log2 normalized intensity)
AAGACTAACCTTTGACCATCCACGGGTCCA	5.41
TACTGGTTGAATGGACGGACAGGTAACGTA	0.899
TGACCCCTCCCCTCCCCCTTGGTGTTTAAA	5.48
TGTGTGTAACATTTGACTTCCCCAAAACTT	2.5
ATCTTTTTAGCAACTGGTATGTTAGATTAG	1.09
TGTGCTAGATACTGGAGATATGTTGCTGGA	0.67
GACAAATCTCACTGATAGTCTCCTATCAAG	-1.24
GTCCTGCACATGAATGATCAAAGGTTGGTT	4.3
TAACATTAATGGAAATGCCTAGGATACCTA	-1.19
CAGCTGTTATGAGTCTGTTGTCTAACATTT	0.597
GTGACTTGAAAGGGACTTAGAATCGAATTG	-0.0805
TAAGGGAGATGAAAGGGGCCTCAGAGAAAG	-1.29
ACTTAAAAAAATCTAGTTTAGGATTTTAGC	-0.542
ATTCTCTAGAATCTAGAAAATGCAAGGAAA	-1.17
TCTTTGAATGGACTCTGAGACCTGTGATGG	3.61
CAGGAGCAGAAGCAGGCCTCGGGCCTGCGA	-1.32
GCAGCCGCCGGAGAATTAAACTGCCGCGCC	-1.29
CAGCAACCGCCTACCTTTGGACTTCTCATT	3.88
TTGGACTCTGCCACTGGTTTGCACACACCA	1.94
ATTTACAAACAAATGCAAAACTGGCAAAAC	-1.37
TACTTTTCAGGAACTGTTCTTTGACTCAGT	1.58
CCAGGTCCACAGTGCACATTCCAGAGAAAT	-1.36
CTGTGGGGAGGTTATCTCGGGGATGGCATG	0.591
CCTAGCCCTCTTTCAAAGACAAATATCGAC	-0.514

Sequence	binding signal (log2 normalized intensity)
AGCAGCTACATAAGGGTAGAGACCTTTGTT	2.77
ATGCAGCTAAAAGCAGCATCCCTGATAAAC	-1.38
CTTACCTGCCAAATATTGGGCAATGCTAGG	-1.4
GGCTTCACAATTCCTAGCAATTCAAATTCT	-1.05
GAGCCTGGACACACGAATAATGGAGCTGAT	-1.14
CAGGCCCTTCTACATGAGGAGTGAGAACAG	-1.31
GGATTAAGTGCATACTCAAAGAATTTAACA	-1.5
CTTATGCATAGATGTTTAGCTATCAGTGTT	0.941
TGTAGATAAACTGGAAAGGGCTTCAGAGTC	-1.28
TCCAAAGGAGTGGTCCTGCTCAAAGGGGAA	-0.986
GTTTGCACAAAGGGTTATGGGAAGTGGGGT	-0.134
TGCCAAGTGATAAGGAACCTAGGAAATCAA	-0.864
ATTCAAAGCAGAGGTGACCCTTGCACTCAT	6.82
GTCTGCTATTATCATCTCTTGTCTGGAATA	0.938
GAGAAGTTGCTCTTTACACCATTGCAAGGA	-0.0322
AGCAATACATTGAACTTTGAACACCTCTTC	6.54
GTGGGAGGATCGCTTGAGCCTGGGAGGCAA	-1.33
CTTTGCCCTCCCTAAATCCAGAGGTATTTG	2.04
GCCAGCAACGGTGAGTCAAGCACTTCTCAC	-1.3
GTTTTTCTTCAAGGAGGTGAACTTTGAGAC	6.87
CAAAACCAGTTTTTCCAGCAGCGGATCCAA	-1.29
